# Measurements as given in PubChem BioAssay AID445 (National Center for Advancing Translational Sciences (NCATS), 2006).
# Screen size: about 110,000 compounds; about 40 (0.04%) were called active. Inconclusive means that the source gave no clear call. Such entries were picked first, then a sample of the others. Calls follow the shape of the dose curve; as a rule, active = well fitted curve in the direction sought with a large enough effect in the signal ratio (not every such curve was filed as active); inconclusive = small, poorly fitted or top-dose-only effect, or a change in a side signal; inactive = flat fitted curve, though single readings scatter; the % refers to the signal ratio. Where the call is inconclusive, the potency comes from a doubtful curve fit.
# Test: IkB Signaling;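 as to IkBa stabilization activation: 0% = basal untreated cells and 100% = reference inhibitor full response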
# Conditions: ABC-DLBCL IkBa-CBG/CBR dual luciferase ratio (green luciferase fused to IkBa over red control in OCI-Ly3 lymphoma cells), 4 h; IkBa stabilization activation: at 57.1 µM (top of the series), scaled: untreated 0%, proteasome inhibitor 100% unless noted
# Summary of the method: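 In this assay, an IκBα–CBG68 fusion accumulates when IKK-driven degradation is blocked; native CBR normalizes for cell number. OCI-Ly3 cells were treated 4 h with compound and doxycycline, then green and red light read after Chroma-Glo addition.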
# Potency is read from the fitted curve at half-maximal effect.
Compound,IkBa stabilization activation,Potency
CCOc1ccc(CNC(=O)c2ccc3c(Cl)c4c(nc3c2)CCCC4)cc1,inconclusive: 11.7% [signal inhibitor],–
CN(C(=O)CSc1nc2ccc(NC(=O)c3cccc(F)c3)cc2s1)c1ccccc1,inconclusive: 1.66% [signal inhibitor],–
N#Cc1cc2c(nc1SCc1ccccc1)CCCC2=O,inactive: -0.307%,–
COc1cc(Cl)c(C)cc1NC(=O)CC1Oc2ccccc2NC1=O (stereo not given),inconclusive: -0.427% [signal inhibitor],–
O=c1c(-c2ccc(Cl)cc2)nc2cnc(N3CCNCC3)nc2n1Cc1ccc(F)cc1,"inactive: -1.33% [at 11.4 µM, scaled: untreated 0%, proteasome inhibitor 100%]",–
CCOC(=O)c1c(NC(C)=O)c2c3c(sc2n1Cc1c(C)cc(C)cc1C)CCCC3,inconclusive: 3.29% [signal inhibitor],–
CCOc1ccc(N(CC(=O)NCc2ccc(OC)cc2)S(=O)(=O)c2c(C)[nH]c(=O)[nH]c2=O)cc1,inactive: 0.442%,–
CCOc1ccc(NC(=O)CSc2nc3c(c(=O)n2C)SC(C)C3)cc1 (stereo not given),inactive: -2.4%,–
COc1ccc(Cn2ccnc2SCC(=O)Nc2ccc3c(c2)OCCO3)cc1,inactive: -0.866%,–
Cc1c(Cl)cccc1NC(=O)c1oc2ccc(S(=O)(=O)N3CCCCCC3)cc2c1C,inconclusive: 0.0195% [signal inhibitor],–
O=C(Nc1cccc(F)c1)c1ccc2oc(=O)n(Cc3ccccc3)c2c1,inconclusive: 1.99% [signal inhibitor],–
CC(C)OC(=O)CN1CCN(C2c3ccccc3-c3ccccc32)CC1,inactive: 0.0255%,–
O=C(Nc1nc2ccccc2s1)C1CCCN1S(=O)(=O)c1ccc(Cl)cc1 (stereo not given),inconclusive: 3.51% [signal inhibitor],–
Cc1cccc(N(CC(=O)NCCc2ccccc2)S(=O)(=O)c2ccccc2)c1C,inconclusive: -4.25% [signal inhibitor],–
COc1ccc(CCNC(=O)c2cc3c(=O)n4cccc(C)c4nc3n2C)cc1,inconclusive: 0.906% [signal inhibitor],–
CCN1CCN(Cc2ccc(NC(=O)Nc3ccccc3Cl)cc2)CC1,inactive: 1.01%,–
CCOc1ccc(C2C(=O)N(C3CCCCCC3)CC(=O)N2Cc2ccc(C)cc2)cc1OC (stereo not given),inactive: -0.599%,–
COc1ccc2c(C)c(CCC(=O)NCc3cccc(Cl)c3)c(=O)oc2c1,inconclusive: 0.471% [signal inhibitor],–
Cc1cccc(CSCCNC(=O)C2CCN(S(=O)(=O)Cc3ccccc3)CC2)c1,inconclusive: 1.59% [signal inhibitor],–
CCCOC(=O)c1ccc(OCC(O)Cn2c(C)nc3ccccc32)cc1 (stereo not given),inconclusive: 8.88% [signal inhibitor],–
CN(C)CCn1c(C(=O)Nc2ccccc2)cc2ccccc21,inactive: 3.23%,–
O=C(c1cccs1)c1no[n+]([O-])c1C(=O)c1cccs1,–,"inconclusive: 3980 nM [rising, partial curve]"
COc1ccc(N(CC(O)Cn2nnc3ccccc32)S(=O)(=O)c2ccc(C)cc2)cc1 (stereo not given),inconclusive: 2.37% [signal inhibitor],–

Compound,IkBa stabilization activation,Potency
c1cncc(-c2nc(NCCN3CCOCC3)c3ccccc3n2)c1,"inactive: -7.59% [at 11.4 µM, scaled: untreated 0%, proteasome inhibitor 100%]",–
O=C(CSc1nc2ccccc2s1)N1CCN(C(=O)c2ccco2)CC1,inactive: 0.959%,–
Cc1ccc(-n2nc(C(=O)N3CCN(c4cccc(C(F)(F)F)c4)CC3)c(=O)n(C)c2=O)cc1,inconclusive: 1.58% [signal inhibitor],–
O=C(O)CCC(=O)c1ccc[nH]1,"inactive: 1.5% [at 11.4 µM, scaled: untreated 0%, proteasome inhibitor 100%]",–
Cc1ccc(C)c(N2CCN(S(=O)(=O)c3ccc4c(c3)CCC(=O)N4)CC2)c1,inconclusive: 3.08% [signal inhibitor],–
Cc1cc(C)c2nc(N3CCCC(C(=O)NCc4cccc(Cl)c4)C3)sc2c1 (stereo not given),inconclusive: 1.67% [signal inhibitor],–
CC(C)CN(CC(C)C)C(=O)C1CCCN(S(=O)(=O)c2ccc3c(c2)oc(=O)n3C)C1 (stereo not given),inconclusive: 1.1% [signal inhibitor],–
COc1cccc(NC(=O)c2nn(-c3ccc(C)cc3)c(=O)n(C)c2=O)c1,inconclusive: 5.55% [signal inhibitor],–
COc1cc(NC(=O)C(C)C)ccc1NC(=O)c1ccco1,inactive: -2.72%,–
COc1ccc(N2CCN(CCCNS(=O)(=O)c3ccc4c(c3)oc(=O)n4C)CC2)cc1,inactive: 2.48%,–
Cc1ccc(CCNC(=O)CCN2N=C(c3ccc(C)cc3)CCC2=O)cc1,inactive: -1.82%,–
COc1ccc(-c2nc3cc(NC(=O)Cc4ccc(Cl)cc4)ccc3o2)cc1OC,inconclusive: 9.85% [signal inhibitor],–
Cc1ccsc1CCN1C(=O)N(c2ccccc2)C(=O)C1CC(=O)Nc1ccc(F)cc1 (stereo not given),inconclusive: 0.79% [signal inhibitor],–
CCOc1cccc2cc(-c3nnc(-c4ccccc4)o3)c(=O)oc12,–,"inconclusive: 20 nM [signal inhibitor, full curve, poor fit]"
Cc1cccc(C)c1NC(=O)c1ccc2c(c1)N(Cc1cccc(Cl)c1)C(=O)c1ccccc1S2=O (stereo not given),inconclusive: 2.03% [signal inhibitor],–
Cc1nc(C)c(-c2ccc(SCC(=O)Nc3ccc(Cl)c(Cl)c3)nn2)s1,inactive: 2%,–
COc1ccc(OC)c(-n2nnc3c(sc4nc(C)c(Br)c(C)c43)c2=O)c1,inconclusive: 0.775% [signal inhibitor],–
CSc1oc(-c2ccccc2)nc1S(=O)(=O)c1ccc(F)cc1,inactive: -1.47%,–
O=c1c2sc3ccccc3c2n(Cc2ccccc2F)c(=O)n1Cc1ccccc1,inactive: -3.09%,–
COc1cccc(CNC(=O)C2CCN(C(=O)N3CCOc4ccc(Cl)cc43)CC2)c1OC,inactive: -2.58%,–
COc1ccc(Cl)cc1NC(=O)c1cc(C)nc2c1c(C)nn2-c1ccccc1,inconclusive: 0.642% [signal inhibitor],–
Cc1nc2c(C(=O)NCc3ccccc3)cnn2c(C)c1Cc1ccc(F)cc1,inactive: 2.43%,–
